About 5,800 (2.1%) of roughly 270,000 compounds were called active. This list was built around the results that the source calls inconclusive (neither active nor inactive); the mix of calls is not that of the screen. The call rests on the fitted dose curve; in most records, active means well fitted inhibition curve with a large enough effect; inconclusive means small, poorly fitted or top-dose-only effect; inactive means flat fitted curve, though single readings scatter. A potency beside an inconclusive call is a rough fit, not a confirmed value.
Each compound was assayed against Microtubule-associated protein tau (Homo sapiens) (UniProt P10636) (assay: qHTS for Inhibitors of Tau Fibril Formation, Thioflavin T Binding). Conditions: recombinant tau K18 P301L (four-repeat tau fragment), heparin-induced fibrillization, ThT fluorescence; series mostly up to 57.4 µM.
Chain of UniProt P10636 (P10636 whole entry, looked up, the tested form may be a part): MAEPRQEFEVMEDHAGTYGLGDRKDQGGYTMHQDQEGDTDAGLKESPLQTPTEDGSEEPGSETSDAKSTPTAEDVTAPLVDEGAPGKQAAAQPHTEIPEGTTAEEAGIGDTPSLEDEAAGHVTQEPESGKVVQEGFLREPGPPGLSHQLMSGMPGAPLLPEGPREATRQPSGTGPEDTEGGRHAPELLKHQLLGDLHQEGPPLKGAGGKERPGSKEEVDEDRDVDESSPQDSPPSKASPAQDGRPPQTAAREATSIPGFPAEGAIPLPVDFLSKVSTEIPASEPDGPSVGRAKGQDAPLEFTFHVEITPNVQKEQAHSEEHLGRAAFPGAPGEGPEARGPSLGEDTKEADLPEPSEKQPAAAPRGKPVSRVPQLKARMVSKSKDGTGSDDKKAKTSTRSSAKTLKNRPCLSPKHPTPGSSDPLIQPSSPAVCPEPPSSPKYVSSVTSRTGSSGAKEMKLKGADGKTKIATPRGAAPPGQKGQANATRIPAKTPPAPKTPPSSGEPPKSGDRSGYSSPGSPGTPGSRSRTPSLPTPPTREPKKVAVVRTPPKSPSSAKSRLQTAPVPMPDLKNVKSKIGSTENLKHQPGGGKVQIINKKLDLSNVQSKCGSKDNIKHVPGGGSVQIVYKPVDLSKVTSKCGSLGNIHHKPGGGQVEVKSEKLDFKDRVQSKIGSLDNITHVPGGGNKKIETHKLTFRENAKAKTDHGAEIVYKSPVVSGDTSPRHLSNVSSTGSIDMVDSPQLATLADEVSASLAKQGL
Outline: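 Recombinant human tau K18 fragment […] carrying P301L, 15 uM unlabeled plus 0.24 uM Alexa 594-labeled, was fibrillized with 20 uM heparin in 100 mM sodium acetate pH 7 for 6 hr at 37 C; 30 uM ThT fluorescence read after 1 hr.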
Further: nearly all actives have a fitted effect of over 55% in size.
On the % scale 0 is the no-effect control and ±100 the full control effect; potency means the concentration at half of the fitted maximal effect; tags describe the fitted curve by direction and shape.

Row | SMILES | Potency | activity, negative = inhibition
1 | O=C(CSc1nnc(COc2ccccc2)n1Cc1ccco1)c1ccc(F)cc1 | inactive | 
2 | COC(=O)c1cc2oc(C)cc2n1CC(=O)N1CCCc2ccccc21 | inconclusive: 31.6 µM [inhibitor, single point] | 
3 | Oc1ccc(/C=N/NC2=NCCCCC2)c(O)c1 | inactive | 
4 | COc1cccc(C(=O)NCC(c2ccc(N(C)C)cc2)N2CCc3ccccc32)c1 (configuration not stated) | inconclusive: 17.8 µM [inhibitor, partial curve] | 
5 | COc1ccc(/C=N/NC(=O)c2ccncc2)cc1Cn1nc([N+](=O)[O-])c(Br)c1C | inconclusive: 28.2 µM [inhibitor, single point] | 
6 | COc1cccc(NC(=O)CCN2CCN(c3ccccc3)CC2)c1 | inconclusive: 31.6 µM [inhibitor, single point] | 
7 | CCOC(=O)C1CCCN(C(=O)c2ccc(OC)c([N+](=O)[O-])c2)C1 (configuration not stated) | inactive | 
8 | Clc1ccccc1N/N=C/c1ccc2c(c1)OCO2 | inconclusive: 12.6 µM [inhibitor, partial curve] | 
9 | Cc1ccc(CCNC(=O)c2c[nH]c3ccc(S(=O)(=O)Nc4ccc(C)cc4C)cc3c2=O)cc1 | inactive | 
10 | COc1ccc2nc(Nc3nc4cc5c(cc4s3)OCCO5)sc2c1 | active: 3.55 µM | 
11 | Cc1ccc(NC(=O)CSc2ccc(-c3ccco3)nn2)c(C)c1 | inactive | 
12 | CCOc1ncccc1C(=O)OCC(=O)c1cc(C)n(Cc2ccco2)c1C | inconclusive: 12.6 µM [inhibitor, partial curve] | 
13 | Cc1ccccc1C(=O)Nc1ccc(OCc2cc(=O)n3ccccc3n2)cc1 | inactive | 
14 | Cc1ccnc(SCc2cc(=O)c(OC(=O)c3ccc(Br)o3)co2)n1 | inconclusive: 11.2 µM [inhibitor, partial curve] | 
15 | COc1ccc(C(=O)N/N=C(\C)CC(=O)Nc2ccc(Cl)cn2)cc1 | inconclusive: 25.1 µM [inhibitor, partial curve] | 
16 | Cc1cc(NCCOCCO)n2ncc(-c3ccc(Cl)cc3)c2n1 | inconclusive: 12.6 µM [inhibitor, partial curve] | 
17 | CCOC(=O)c1ccc(Nc2ccc(-c3ccc(OC)c(OC)c3)nn2)cc1 | inconclusive: 1.41 µM [inhibitor, full curve] | 
18 | CC(C)c1ccc(NC(=O)COc2ccc(F)cc2C(=O)c2cnn(-c3ccccc3)c2)cc1 | inactive | 
19 | CCOC(=O)C(=CNNc1ccccc1)C(=O)OCC | inconclusive: 15.8 µM [inhibitor, partial curve] | 
20 | CO/N=C/c1c(C(=O)OC)nn(-c2ccccc2)c1Cl | inactive | 
21 | Cc1cc(-c2n[nH]c(=S)n2/N=C/C=C/c2ccco2)n[nH]1 | inconclusive: 14.1 µM [inhibitor, partial curve] | 
22 | O=C(Nc1ccccc1Cl)N1CCn2c(nc3ccccc32)C1 | inconclusive: 0.0251 µM [inhibitor, full curve, poor fit] | 
23 | CCNC(=S)Nc1cccc([N+](=O)[O-])c1 | inconclusive: 14.1 µM [inhibitor, partial curve] | 
24 | CC1(C)O[C@H]2O[C@@H]([C@H](O)CON3C(=O)c4ccccc4C3=O)[C@H](O)[C@H]2O1 |  | inactive: -18% [at 11.5 µM]

Row | SMILES | Potency | activity, negative = inhibition
25 | Cc1ccc(/C=C/C(=O)OC(C)C(=O)Nc2ccc(Cl)cn2)o1 (configuration not stated) | inconclusive: 14.1 µM [inhibitor, single point] | 
26 | COc1cc(/C=C/c2ccc3cccc([N+](=O)[O-])c3n2)ccc1OCC#N | inconclusive: 5.01 µM [inhibitor, partial curve] | 
27 | Cc1ccc(-n2nc(C)c(C(=O)O)n2)c(C)c1 | inactive | 
28 | O=C(Nc1ccc2nc(C3CC3)n(Cc3ccc(F)cc3)c(=O)c2c1)c1ccco1 | inconclusive: 2.51 µM [inhibitor, partial curve] | 
29 | COc1ccc(/C=N/Nc2nc3ccccc3c(=O)n2-c2ccccc2)cc1OC | inconclusive: 12.6 µM [inhibitor, partial curve] | 
30 | CCOc1ccc(-n2c(SCC(=O)NCc3ccco3)nc3c(c2=O)SCC3)cc1 | inconclusive: 25.1 µM [inhibitor, partial curve, poor fit] | 
31 | NC(=O)Cn1c(=O)n(Cc2ccco2)c(=O)c2c3c(sc21)CCCCC3 | inactive | 
32 | O=C(COc1ncnc2cc([N+](=O)[O-])ccc12)NCc1ccc2c(c1)OCO2 | inconclusive: 17.8 µM [inhibitor, partial curve] | 
33 | O=S(=O)([O-])CCC[n+]1c(SCCCS(=O)(=O)O)sc2ccc(Cl)cc21 | inconclusive: 35.5 µM [inhibitor, single point] | 
34 | COc1ccc(-c2ccnc3nc(N4CCN(c5ccccc5)CC4)nn23)cc1 | inconclusive: 25.1 µM [inhibitor, partial curve] | 
35 | COc1ccc(CCNc2c(C)c(C)nc3ncnn23)cc1 | inactive | 
36 | CCOc1ccc(Br)cc1S(=O)(=O)NCc1ccc(S(N)(=O)=O)cc1 | inactive | 
37 | Cn1cc(C(=O)NCc2ccc(Cl)cc2)c(=O)c2cc(S(=O)(=O)N3CCCCCC3)ccc21 | inactive | 
38 | CCc1ccc(NC2CC(=O)N(c3ccc(OC)cc3OC)C2=O)cc1 (configuration not stated) | inconclusive: 17.8 µM [inhibitor, partial curve] | 
39 | CC(C)c1ccc(-n2nc3ccc(N)cc3n2)cc1 | inconclusive: 5.01 µM [inhibitor, partial curve] | 
40 | c1ccc2c(c1)nc1n2C2(N3CCOCC3)CCCC2C1N1CCOCC1 (configuration not stated) | inconclusive: 35.5 µM [inhibitor, single point] | 
41 | CCOC(=O)c1ccc(NC(=O)c2c(NCc3sccc3C)sc3c2CCCCC3)cc1 | active: 31.6 µM | 
42 | COc1cc(NS(=O)(=O)c2ccc(N/C=C(\C=O)c3nc4cc(Cl)ccc4o3)cc2)nc(OC)n1 | inconclusive: 31.6 µM [inhibitor, single point] | 
43 | Cc1ccc(NS(=O)(=O)c2cc([N+](=O)[O-])ccc2NNC(=S)Nc2cccc(Cl)c2)c(C)c1 | active: 10 µM | 
44 | FC(F)(F)c1cnc2c(c1)Nc1ccccc1S2 | inconclusive: 15.8 µM [inhibitor, partial curve] | 
45 | N#C/C(=C(/O)c1ccc([N+](=O)[O-])o1)c1nc2ccccc2[nH]1 | active: 7.08 µM | 
46 | COC(=O)c1cc2sc(Cl)cc2n1Cc1nc(-c2ccc(OC)cc2)oc1C | inactive | 
47 | CCC1(c2cccc(Cl)c2)NC(=O)N(Cc2cc(C(=O)OC)c(C)o2)C1=O (configuration not stated) | inconclusive: 39.8 µM [inhibitor, single point] | 
48 | Cc1cc(NC(=O)CN2CCCC(C)C2)no1 (configuration not stated) | inactive | 

Row | SMILES | Potency | activity, negative = inhibition
49 | O=Cc1ccnc(-c2ccc(OC(=O)c3ccco3)cc2)n1 | inactive | 
50 | CC1=CC(=O)CC(C)(C)C1(O)/C=C/C(C)=C/C(=O)O (configuration not stated) | inactive | 
51 | CCCS(=O)(=O)N1CCC(CCOc2ccccc2)(C(=O)OCC)CC1 | inconclusive: 15.8 µM [inhibitor, partial curve, poor fit] | 
52 | COC(=O)/C=C/c1cccc([C@H]2[C@@H]3C=CC[C@@H](C)[C@@H]3C(=O)N2Cc2ccccc2)c1 | inconclusive: 0.631 µM [inhibitor, full curve, poor fit] | 
53 | FCCCOc1ccc(-c2nccc(-c3ccc(Br)cc3)n2)cc1 | inconclusive: 28.2 µM [inhibitor, partial curve, poor fit] | 
54 | Cc1ccc(C(=O)NC(=S)Nc2ccc(CN3CCCCC3)cc2)c(C)c1 | inactive | 
55 | COc1cccc(C(=O)Nc2cc3cc(OC)ccc3oc2=O)c1 | inconclusive: 14.1 µM [inhibitor, partial curve] | 
56 | CCOc1cc(C2C(C#N)=C(N)OC3=C2C(=O)CC(C)(C)C3)cc([N+](=O)[O-])c1O (configuration not stated) | inconclusive: 12.6 µM [inhibitor, partial curve] | 
57 | Cn1cccc1/C=C1\SC(=Nc2ccccc2)NC1=O | active: 12.6 µM | 
58 | Cc1ccnc(N2C(=O)c3cccc4c([N+](=O)[O-])ccc(c34)C2=O)c1 | inconclusive: 25.1 µM [inhibitor, partial curve] | 
59 | O=S(=O)(c1cnc(Cl)c(Br)c1)N1CCN(c2ncccn2)CC1 | inactive | 
60 | CCCCOc1ccc(CN(CCO)CCO)cc1[N+](=O)[O-] | inconclusive: 39.8 µM [inhibitor, single point] | 
61 | Cc1[nH]c2ccccc2c1C(=O)CNc1nccs1 | inactive | 
62 | Cc1ccc(N=Cc2cc(Cc3ccccc3Cl)cc([N+](=O)[O-])c2O)c(O)c1 | active: 7.94 µM | 
63 | Cc1ccsc1/C=C1\CCC(C2CCCC2)C1=O (configuration not stated) | inconclusive: 20 µM [inhibitor, partial curve, poor fit] | 
64 | CCCC(C)NC(=S)Nc1cc(C)cc(C)c1 (configuration not stated) | inactive | 
65 | CC(C)(C)c1ccc(C2NC(=O)c3n[nH]c(-c4cccs4)c32)cc1 (configuration not stated) | inactive | 
66 | Cc1cccn2c(=O)c3cc(C(=O)NCCc4ccccc4)c(=N)n(CCCn4ccnc4)c3nc12 | active: 11.2 µM | 
67 | CCCN(Cc1nc(-c2ccc(Cl)cc2)no1)CC1CCCO1 (configuration not stated) | inconclusive: 44.7 µM [inhibitor, single point] | 
68 | O=C1c2cccc3c(O)ccc(c23)C(=O)N1Cc1ccccc1 | inconclusive: 14.1 µM [inhibitor, partial curve] | 
69 | CCCCSCCCNC(=O)CN1C(=O)COc2ccc(S(=O)(=O)N3CCC(C)CC3)cc21 | inactive | 
70 | CCCCOc1ccc(C2OC34CCCCC3C(C#N)(C#N)C2(C#N)C(=N)O4)cc1 (configuration not stated) | inactive | 
71 | Cc1ccccc1-c1cnn(-c2cccc([N+](=O)[O-])c2)c1N | inactive | 
72 | O=C(Nc1nnc(S(=O)(=O)N2CCN(c3ccc(F)cc3)CC2)s1)c1ccc(Cl)cc1 | inconclusive: 1.58 µM [inhibitor, full curve] | 
